Measurements taken from the supplement of paper PMC3334620.
The full ranking holds about 33,000 sequences; the median of “E-score (-0.5 to 0.5)” is about -0.054, and the highest 2% start at about 0.35. This is one part of the list.

Target: T1, Stb5 (UniProt P38699)
T1 sequence: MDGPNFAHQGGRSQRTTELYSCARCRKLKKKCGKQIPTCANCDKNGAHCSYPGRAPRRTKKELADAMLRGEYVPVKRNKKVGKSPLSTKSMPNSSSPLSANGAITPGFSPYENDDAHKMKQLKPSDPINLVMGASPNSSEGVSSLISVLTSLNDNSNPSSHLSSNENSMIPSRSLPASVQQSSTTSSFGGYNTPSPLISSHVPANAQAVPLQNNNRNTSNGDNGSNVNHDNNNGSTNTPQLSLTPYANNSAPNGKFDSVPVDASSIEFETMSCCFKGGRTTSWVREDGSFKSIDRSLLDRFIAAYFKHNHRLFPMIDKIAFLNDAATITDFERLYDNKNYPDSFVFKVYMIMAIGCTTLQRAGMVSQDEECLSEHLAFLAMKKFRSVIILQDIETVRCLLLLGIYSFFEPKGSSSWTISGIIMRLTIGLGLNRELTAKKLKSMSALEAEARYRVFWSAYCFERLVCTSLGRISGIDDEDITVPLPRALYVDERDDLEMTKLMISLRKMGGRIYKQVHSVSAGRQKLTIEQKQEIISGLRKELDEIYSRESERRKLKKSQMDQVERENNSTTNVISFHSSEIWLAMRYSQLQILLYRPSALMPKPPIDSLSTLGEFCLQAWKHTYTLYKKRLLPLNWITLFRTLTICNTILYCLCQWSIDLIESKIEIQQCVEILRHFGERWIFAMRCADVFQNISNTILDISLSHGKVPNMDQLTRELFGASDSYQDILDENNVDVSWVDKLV
Assay: PBM E-score (8-mer binding enrichment) (E-score (-0.5 to 0.5)); higher = stronger / more preferred TF binding; most listed sequences are background and not binding sites
Conditions: protein concentration: 200 nM; construct: GST-full length
Method in brief: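 E-scores (a modified Wilcoxon-Mann-Whitney statistic) were assigned by the Universal PBM Analysis Suite to every ungapped eight-base word pooled with its reverse complement. The input came from universal all-10-mer Agilent arrays made double-stranded by primer extension and probed with GST-tagged yeast transcription factors at about 100-200 nM. Fluorescent anti-GST detected bound protein, and masliner normalised the scans.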

Sequence	PBM E-score
ACGATTAA	0.0221
ACCTGAGC	-0.238
AAGATATA	0.0715
ATCTATCA	-0.106
CTGCAACA	-0.0854
CCTGTGTA	-0.131
AGGGTGTC	-0.106
CAGGAGAG	-0.17
AGAGCAAA	-0.348
CCAAGAGG	-0.138
AGAGATAC	-0.00514
ATAGAATA	-0.0414
AAGGAGGC	-0.266
CAAGACCA	-0.276
CCCCCTCG	-0.272
GTCTGCTA	-0.0848
ATTATGGG	-0.0481
ACTTCTGC	-0.063
CATGACGC	0.0269
CGTCGGCC	0.324
ATGACAAG	-0.0607
GACTTGGC	-0.25
GAGCCTTA	-0.0515
GTACGTAC	0.0373
GCAAAACA	-0.117

Sequence	PBM E-score
GTCATTCA	0.0151
AATACTAT	0.0224
CCCTCGAC	-0.0702
CGCGGGGA	0.305
ACCCGTAA	0.175
GAGACCTC	-0.145
CACGGTGA	0.282
CTCGGCGC	0.148
ACGCAATG	-0.0524
CGGCCATA	0.376
CGCCATAG	0.0546
ATAGCACC	0.396
CAGCATAG	-0.0954
CAGAGTCG	-0.0674
AGGTCTTA	0.0291
ATGTAAAG	-0.147
ACTTGTTG	-0.299
CTTACCCC	0.222
CTCAGAAA	-0.225
AAGAGACG	0.272
AGTACGCA	-0.101
CGGCTCTA	0.391
ACCAATAT	-0.298
ATGTACCG	0.274
AAGGAGTG	-0.106

Sequence	PBM E-score
CAGACTAA	-0.124
AACAGCAA	-0.168
ACCTCGCA	-0.0661
CGCCAAGC	0.0121
ACACACGC	0.0373
AACCGTGA	0.125
ACACCAGG	-0.163
CTCGCTCC	-0.201
AAATCAAC	-0.141
ACGCGGGC	0.281
AATACGCA	-0.249
AGGTATTC	-0.138
GTCGCCTA	-0.148
AGCGAGCA	-0.134
CCACGGAC	0.187
CGAGCCAA	-0.184
GATTACAC	-0.00962
ATATTATC	0.163
ACCTTCAC	-0.174
GCAAGGGA	-0.151
AGCGGGTG	0.125
CATAGCCA	-0.1
AGTCGCTA	-0.244
CTAGGCCC	0.193
CAAGTCCC	0.00375

Sequence	PBM E-score
GTGGGACA	-0.101
ATCCTATA	-0.0861
ATGTCCAC	-0.0116
GACCGTAC	0.0754
CACTGAAA	-0.221
CGATAATC	0.119
ACGTCACC	0.047
AAAAGAGC	0.0536
CGTAACTA	-0.161
CGGTTTTC	0.102
ATCGACAT	-0.0715
ATGTAGGA	-0.0464
AGTATATC	-0.0131
CGTTCGGC	0.151
CGCATTAC	0.0416
GCTGCACC	0.0154
AACTGTAA	-0.0519
CCCGGAAC	0.233
GAGGCCGC	0.322
CTACCATC	-0.109
ATCTCATA	-0.186
AGAGCTTA	-0.131
CGGACCCG	0.234
ACCTCATC	-0.248
CGGGCTTA	0.473

Sequence	PBM E-score
AGTTGTTG	-0.186
CCTGCCTA	-0.299
CAGAGCGG	0.264
ATATACTA	0.0349
CCCGTGTA	0.126
CCTGAGAA	-0.259
TCAGTCGA	-0.246
AAGAAACG	0.111
GGATCCGA	0.117
GGCTACCC	-0.137
GTTATGCA	-0.0691
ACCCGGAC	0.229
AAAAAACA	0.0316
ATTATCTA	-0.0957
GACATGTC	0.0605
GAAGGCGA	-0.0276
ATCATACC	0.155
GATATGGC	0.00035
ATTTCATG	-0.28
ATTGAGTA	-0.188
CAGAAGGC	-0.0224
CGAAATGA	-0.00376
CCGGGAGG	0.154
AGACAGAA	-0.216
CTGTTGGA	-0.152

Sequence	PBM E-score
GGAGACTA	-0.115
ACAGATGG	-0.21
ACACGTGT	-0.291
AGGATGAC	-0.189
ATGGTCGA	-0.198
GAACGTCA	-0.246
GGAAGAGA	0.00808
CCGCCAGC	0.356
CGGTATTA	0.472
ATAACAAT	0.0147
TAAGGGGA	0.087
ACCCCCAC	0.00633
ATCATCGG	0.299
AGAGTCAT	-0.313
AGCGTCAA	0.0319
GCGCGTTA	0.0855
ACTTCGAA	-0.242
ATTGACGC	0.0279
GAACCGAC	0.225
CGGATAAC	0.132
CAGTATCC	-0.0856
CTCCCTAC	-0.0607
GGGCGCAC	0.0767
AATATTAC	0.101
ACTCTGGC	-0.146

Sequence	PBM E-score
ATAAAATG	-0.0434
CGTGGTCA	-0.252
AGCGGGAT	0.25
ATATCGCA	-0.0216
AAGGACCA	-0.0213
AGCAAGAA	-0.0877
AGTTCCCG	0.196
CGCTTCCG	0.208
AACTAGGC	-0.093
CAGTCCTA	-0.313
ACCGGACT	0.376
CAGCGATG	-0.0384
GAGTTGAC	-0.0497
GAGCCAAC	-0.226
CATCAGAA	-0.195
AGGGCTGC	-0.226
GAAACCCC	0.353
GGGTTTGA	0.0849
GTGTGTCA	-0.0349
ATTTCGGA	0.265
GGACACGA	0.0374
CCCCGCTC	0.371
ACGGTCCA	0.0299
GCTATATA	0.132
CGATCAAC	-0.141

Sequence	PBM E-score
ACATCACG	-0.114
ACCGCCCC	0.367
TACACTAA	-0.176
ATGAGATG	-0.17
ATGGCCTG	-0.227
AAAGAGCC	0.111
CTTTGCTC	0.0678
AGCTTAAG	-0.265
TAGCTGAA	-0.141
GTCTGCAC	-0.0476
GAACGAAA	-0.156
CCGTAGCA	0.189
CATTGACG	-0.0772
AGGTTAAC	0.0587
GGTACTTA	0.233
ACCTTTGC	-0.0619
ATAGAGTC	-0.013
CCAGTGGG	-0.145
CCGTCCGA	0.275
ACACGTCC	-0.114
CCGGGAAG	0.0638
AAGATCGC	-0.0115
CCAATTTC	-0.0638
CGATACAG	-0.0583
AGAGTATG	-0.102

Sequence	PBM E-score
AAATCGCT	-0.107
CAGTAGCC	-0.051
AATAGAGG	-0.111
AAGTTTGG	-0.00921
ATCTTACG	0.0966
CCGCCGAG	0.28
AACTGCGG	0.307
CGACAACG	0.175
ATTAACGA	-0.0931
AACATGTC	0.0872
GACAGACA	0.0708
ATTATCTG	-0.0511
CTGGAGGC	-0.272
ATTGCGGC	0.204
CTTTGCCA	-0.0558
AGTTTATC	0.0422
CCATCGTA	-0.0851
ATTCGGGA	0.0209
AATTCTTA	-0.112
CCCGGGAA	0.217
ACCGCAAA	0.262
GGATTACA	-0.0636
CGAGAATA	-0.0969
ACACACAC	-0.133
CGAAGTAC	0.0461

Sequence	PBM E-score
AGTGATAT	-0.0933
CATCTTGG	-0.229
CATCGGCA	0.328
TGAGAACA	-0.0285
GAAGGGGC	-0.11
ATCCGCTC	0.243
GTCGCGTA	0.0581
AAACGCGA	-0.0694
ATCGCCAT	0.161
AAGCGAGT	-0.0722
ACTTATAG	0.198
ATAAAGAC	0.0554
ATTAAAAG	0.0331
GTGAAGAA	-0.141
ATATCTCC	0.397
ATGGACAG	-0.131
GTCGAGAA	-0.174
AGGTGCAA	-0.161
CCCCAAAG	-0.212
GGAAATCA	-0.0323
CAACGAAG	-0.162
ATATGTTG	-0.128
AGCGTACT	-0.0432
AAGGCCAG	-0.161
CTACCAAG	-0.191

Sequence	PBM E-score
GCAGTACA	0.0171
TACTTGAA	-0.125
AGACCAAT	-0.177
AGGGCGGG	0.328
CGGGATCA	0.321
AAGTACGT	-0.0365
ATCGCTTG	-0.173
AGCCCAAT	-0.246
GTCGGCAC	0.374
ACGAATGC	-0.299
ACTTTTCA	-0.276
AGGCAATC	-0.176
CCACTGGG	-0.315
CCTTTGTA	-0.0974
AGCACACG	-0.157
AAAATAAC	0.0722
CACGTGAA	-0.198
CGGACATC	0.256
CGCCGAAA	0.311
TATGGAAA	-0.0819
CAGGGTAA	-0.133
CAGGATCA	-0.159
CCTACTAG	-0.196
CGCGGACC	0.319
GGTCAAGA	-0.165

Sequence	PBM E-score
ATATGGCG	0.103
AGTGGATC	-0.054
CTCGATGC	-0.2
GGCTACTA	0.1
ACGATCAT	-0.317
CAGACAGA	-0.206
CATCCCAA	-0.296
GGTACGAC	0.063
CACTCCGC	0.307
ACTTTCAG	-0.132
GCACTCCA	-0.0741
GCCGAGAC	0.00317
CATATCTC	0.0185
GCATTACA	-0.0122
CAAAAACC	0.251
CTCGCACA	-0.108
GCTGGGGA	-0.0409
CTGACAGC	-0.122
CCAAAGTC	-0.0853
CGTTTTGC	-6e-05
ATGTGTCC	0.14
GGCTGGAA	-0.0915
AACTAAGT	-0.0163
GGCCAAGA	-0.185
CGTGAGAG	-0.241

Sequence	PBM E-score
CCCTGCAG	-0.0201
CCTTCACG	-0.111
AACATGAT	-0.148
CACGAACC	0.0906
AAACACAC	0.0727
AAGCGATC	-0.0121
TAATCCTA	0.0784
ACCTACAT	-0.17
CGCAAGAG	-0.0947
GGATAGAC	-0.0915
ACGGTACT	0.389
GGGGCTAC	0.213
ACATCACT	-0.259
CATCAACG	-0.0698
GATAGGAC	-0.0426
GGGTTAGA	0.107
CAGCAATC	-0.068
TGGTACCA	-0.0919
ACGACATG	-0.0894
AAAACCCG	0.379
CTATTCAC	0.0929
CAAGAAGA	-0.224
AAGAGTGT	-0.252
AACCTCGG	0.157
GGTTAGAC	0.0467

Sequence	PBM E-score
CTTAGAAA	-0.105
CTCGCCTC	-0.245
CGCGCGGA	0.22
CTGCTCGC	-0.122
CTGGATAC	-0.114
ATTCTGCC	0.0981
TAGCAGGA	-0.0294
AAGTTCTG	-0.231
CAGAGACC	-0.0121
AATAGAAG	-0.0985
GGGCGAAA	-0.0437
GTTTATCA	0.102
ACGAGTTG	-0.239
ACGCGTTA	-0.114
GGAATGCA	-0.0982
AGTTAGAT	-0.209
AGAGACTG	-0.344
ACCGAGCA	0.155
ACTCGCCA	-0.226
